Data on 44 compounds can be found in PMC4336329 (PLoS ONE, 2015).

Among all 310,000 compounds or so, about 14,000 (4.5%) showed an effect of 50% or more. Effects have a minus sign here. Some of the results follow.
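Note: peak tail current of the secondary pulse compared with the same well before compound.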

The target of this assay is human ether-à-go-go-related gene (hERG) potassium channel (human, UniProt Q12809). Briefly: primary screen, population patch clamp on CHO cells stably expressing hERG.
human ether-à-go-go-related gene (hERG) potassium channel, sequence (Q12809 whole entry, looked up): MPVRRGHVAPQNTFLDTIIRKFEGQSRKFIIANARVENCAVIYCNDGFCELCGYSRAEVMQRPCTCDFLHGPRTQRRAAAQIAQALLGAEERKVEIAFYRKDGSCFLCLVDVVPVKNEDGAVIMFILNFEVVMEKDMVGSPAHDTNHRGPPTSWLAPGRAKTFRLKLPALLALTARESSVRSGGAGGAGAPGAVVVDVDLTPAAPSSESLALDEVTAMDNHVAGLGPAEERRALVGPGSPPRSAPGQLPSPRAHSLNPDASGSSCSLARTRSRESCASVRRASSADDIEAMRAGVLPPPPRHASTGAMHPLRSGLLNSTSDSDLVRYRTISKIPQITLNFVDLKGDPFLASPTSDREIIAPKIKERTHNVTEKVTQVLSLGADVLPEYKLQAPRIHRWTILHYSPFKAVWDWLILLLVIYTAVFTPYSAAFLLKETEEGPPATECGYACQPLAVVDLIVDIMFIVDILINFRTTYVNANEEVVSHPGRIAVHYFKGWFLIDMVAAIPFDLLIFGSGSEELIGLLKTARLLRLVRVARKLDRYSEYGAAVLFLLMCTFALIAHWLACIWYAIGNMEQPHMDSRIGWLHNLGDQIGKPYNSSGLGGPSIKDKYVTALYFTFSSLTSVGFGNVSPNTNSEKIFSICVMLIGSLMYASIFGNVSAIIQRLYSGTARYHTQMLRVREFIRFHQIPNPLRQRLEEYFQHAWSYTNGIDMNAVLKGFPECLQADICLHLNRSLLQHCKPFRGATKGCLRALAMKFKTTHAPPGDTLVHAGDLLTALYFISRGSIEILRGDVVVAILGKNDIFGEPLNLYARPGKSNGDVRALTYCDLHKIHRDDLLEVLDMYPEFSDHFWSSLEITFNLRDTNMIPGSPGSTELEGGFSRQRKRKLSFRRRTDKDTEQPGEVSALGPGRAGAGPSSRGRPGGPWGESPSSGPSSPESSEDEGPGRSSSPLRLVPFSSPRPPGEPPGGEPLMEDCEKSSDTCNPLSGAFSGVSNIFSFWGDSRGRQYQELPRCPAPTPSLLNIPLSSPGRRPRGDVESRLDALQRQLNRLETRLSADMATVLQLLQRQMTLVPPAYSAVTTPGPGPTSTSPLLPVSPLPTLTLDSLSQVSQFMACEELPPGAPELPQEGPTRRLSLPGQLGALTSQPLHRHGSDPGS
`CC(C)Oc1ccc(S(=O)(=O)N2CCCCC2)cc1NC(=O)CC1OC(=O)c2ccccc21` (centres unmarked): the “hERG current change (%, negative = inhibition) at 10uM” value is on record as -13.8%.
For `O=C(NCCN1CCOCC1)c1cccc(S(=O)(=O)N2CCCCC2)c1`, the “hERG current change (%, negative = inhibition) at 10uM” value stood at 12.9%.
Take `CCOc1ccc(OCC(O)CNC2CCN(Cc3ccccc3)CC2)cc1.O=C(O)C(=O)O` (centres unmarked): the “hERG current change (%, negative = inhibition) at 10uM” value is -62.8%.
In the case of `CCOC(=O)c1cc(C(C)(C)C)nc(SC)c1C#N`, the “hERG current change (%, negative = inhibition) at 10uM” value turned out to be 16.2%.
In the case of `Cc1ccccc1-n1ncc2c1CC(C)(C)CC2NC(=O)CCN1Cc2ccccc2C1=O` (centres unmarked) it was -3.54%.
Regarding `Cc1ccc(Cl)c2sc(N3CCN(C(=O)c4ccco4)CC3)nc12`, the “hERG current change (%, negative = inhibition) at 10uM” value is listed as -10.3%.
`O=C(C1CCC1)N1CCc2cc(S(=O)(=O)NC3CCCc4ccccc43)ccc21` (centres unmarked): the “hERG current change (%, negative = inhibition) at 10uM” value turned out to be 6.89%.
In the case of `Cc1ccc2cccc(S(=O)(=O)Nc3ccc4c(c3)OCO4)c2n1`, the “hERG current change (%, negative = inhibition) at 10uM” value was -10.5%.
For `O=C(NCc1ccco1)c1ccc(COc2cccc3ccccc23)cc1`, the “hERG current change (%, negative = inhibition) at 10uM” value was -6.18%.
As for `C=CCNC(=O)c1c(C(F)(F)F)nn(C)c1Cl`, the “hERG current change (%, negative = inhibition) at 10uM” value is -12.7%.
Take `O=C(O)c1ccccc1C(=O)c1cccs1`: the “hERG current change (%, negative = inhibition) at 10uM” value is 15%.
The same measure for `O=C(CCC1CCN(C(=O)c2ccccc2Cl)CC1)NCc1ccc(F)cc1`: -18.9%.
Take `CCOC(=O)C1=C(C)NC(SC)=NC1c1ccccc1.I` (centres unmarked): the “hERG current change (%, negative = inhibition) at 10uM” value is recorded as -1.61%.
`CCCCNC(=O)[C@H](CSCc1ccccc1)N1Cc2ccccc2C1=O`: the “hERG current change (%, negative = inhibition) at 10uM” value is given as -68.5%.
On to `Cc1ccc(NC(=O)c2csc3c2CCCC3)cc1`, for which the “hERG current change (%, negative = inhibition) at 10uM” value came out at 31.1%.
Consider `CCOc1ccccc1NC(=O)CCNS(=O)(=O)c1ccccc1`, for which the “hERG current change (%, negative = inhibition) at 10uM” value came to 17.6%.
`c1cc(-n2nnc3cnccc32)ccn1`: the “hERG current change (%, negative = inhibition) at 10uM” value is listed as 11.8%.
As to `Cc1cccc(-c2nc3ccccc3c(=O)n2NC(=O)Cc2ccc(Cl)cc2)c1`, the “hERG current change (%, negative = inhibition) at 10uM” value is -5.01%.
In the case of `CCOC(=O)C1CC(C)=C(C)CC1C(=O)O` (centres unmarked) it was 9.68%; in that of `CNC(=O)CO/N=C/c1ccc(N(C)C)cc1`, 4.5%; in that of `Cc1ccc(-c2nc(CN3CCCCC3CCN3CCCC3=O)c(C)o2)o1` (centres unmarked), -51.5%.
For the compound `CCS(=O)(=O)N1CCN(S(=O)(=O)c2ccc3c(c2)OCCO3)CC1`, the “hERG current change (%, negative = inhibition) at 10uM” value is 17.5%.
In the case of `C[n+]1c(/C=C/c2ccc(O)cc2)ccc2ccccc21.[I-]` it was -40.3%; in that of `CCC(C)NC(=O)CSc1nnc(-c2cc(-c3cccs3)nc3ccccc23)o1` (centres unmarked), -0.833%; in that of `COc1cc(C2OCC3C(c4ccc(OC5OC(CO)C(O)C(O)C5O)c(OC)c4)OCC23)ccc1O` (centres unmarked), -2.25%.
In the case of `COC(=O)c1ccc(-n2nnnc2SCC(=O)N2CCCCC2)cc1` it was 8.52%.
In the case of `Cc1ccc(C(=O)NNC(=O)c2ccccc2)cc1S(=O)(=O)N1CCCCC1`, the “hERG current change (%, negative = inhibition) at 10uM” value is given as -13.4%.
Take `COc1cccc(CNC(=O)C2CCN(S(=O)(=O)c3cccs3)CC2)c1`: the “hERG current change (%, negative = inhibition) at 10uM” value is given as -37.7%.
As to `COc1ccc(CCNc2nc(-c3cccc(NC(C)=O)c3)cs2)cc1OC`, the “hERG current change (%, negative = inhibition) at 10uM” value is on record as -17.6%.
With `O=C(NCc1csc(-c2cccs2)n1)Nc1ccc(C(F)(F)F)cc1`, the “hERG current change (%, negative = inhibition) at 10uM” value amounted to 6.25%.
For `C=CCNC(=O)c1c(Cl)cnn1-c1ccc(C)cc1`, the “hERG current change (%, negative = inhibition) at 10uM” value is reported as -4.22%.
In the case of `CSc1nc(N)c2c3c(sc2n1)COC(C(C)C)C3` (centres unmarked) it was -12.1%; in that of `CC1CN(C(=O)CSc2nc(N)cc(N)n2)CC(C)O1` (centres unmarked), -10.3%; in that of `CC(=O)c1ccc(-c2ccc(C(=O)N3CCCc4ccccc43)o2)cc1`, 27.2%.
`CNC(=O)NC(=O)COC(=O)CCCOc1ccc(OC)cc1`: the “hERG current change (%, negative = inhibition) at 10uM” value worked out at 20.5%.
In the case of `CC(NC(=O)COC(=O)c1ccc2ccccc2n1)C1CC2CCC1C2` (centres unmarked) it was 13.4%; in that of `CN1/C(=C\C(=O)c2cccnc2Cl)C(C)(C)c2ccccc21`, -9.26%.
In the case of `CC(=O)Nc1cccc(NC(=O)CSc2ncc(C(=O)Nc3ccccc3)c(=O)n2C)c1` it was 7.03%.
In the case of `CCO[C@@H]1OC(C(=O)O)=C[C@H](c2csc3ccccc23)[C@H]1CCCO` it was -3.12%.
With `CC(=O)NS(=O)(=O)c1ccc(N/C(N)=N/c2nc(C)cc(C)n2)cc1`, the “hERG current change (%, negative = inhibition) at 10uM” value stood at 13.3%.
On to `Nn1c(SCC(=O)Nc2ccccc2Br)nnc1-c1ccco1`, for which the “hERG current change (%, negative = inhibition) at 10uM” value was -20.7%.
On to `NC(=O)CN1C(=O)C2C3C=CC(C3)C2C1=O` (centres unmarked), for which the “hERG current change (%, negative = inhibition) at 10uM” value is on record as 10.4%.
Consider `COc1ccc(C(=O)Nc2cc(=O)n(C)c(=O)n2C)cc1`, for which the “hERG current change (%, negative = inhibition) at 10uM” value is recorded as 0.872%.
In the case of `Cn1nccc1C(=O)c1ccc(Cl)cc1` it was -14.8%.
